# Laboratory results as given in the supplement of paper PMC10037445.
# ± gives the standard deviation of the averaged measurements. Over roughly 2,900 compounds, “NF-kB SEAP reporter activity, fold change vs agonist alone” has its median near 0.99; the highest 2% begin near 2.6. Some of the results follow.
# Tests used:
# [1] = system: RAW-Dual; test: NF-kB SEAP reporter activity, fold change vs agonist alone; higher = enhanced NF-kB activity; settings: library stock concentration (final ~1000-fold dilution): 10 mM
# Summary of the method: (§1)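 Cytotoxic wells were those whose IncuCyte confluency was below 70% of agonist controls in both mask sets. The cells were RAW-Dual macrophages at 50,000 cells/well in DMEM on 384-well plates, dosed with 50 nL of library stock by pin tool, stimulated with a PRR agonist 1 h later, and kept at 37 °C, 5% CO2 for 20 hours. IRF and NF-κB reporter activity, as fold change over agonist-alone wells, came from supernatant read by QuantiLuc luminescence and QuantiBlue absorbance, respectively.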
# [2] = system: RAW-Dual; test: NF-kB SEAP reporter activity, fold change vs agonist alone; cytotoxicity flag (confluency mask): not cytotoxic; higher = enhanced NF-kB activity
# Summary of the method: as §1
# [3] = system: RAW-Dual; test: NF-kB SEAP reporter activity, fold change vs agonist alone; cytotoxicity flag (confluency mask): cytotoxic (confluency <70% of control); higher = enhanced NF-kB activity
# Summary of the method: as §1
# [4] = cytotoxicity flag (confluency mask): not cytotoxic, agonist: Imiquimod (TLR7) […]
# [5] = cytotoxicity flag (confluency mask): not cytotoxic, agonist: MPLA (TLR4) […]
# [6] = agonist: ODN 1826 (TLR9) 0.5 ug/mL
# [7] = agonist: Pam2CSK4 (TLR2/6) 0.1 ug/mL
# [8] = agonist: Pam3CSK4 (TLR2/1) 0.1 ug/mL
# [9] = cytotoxicity flag (confluency mask): cytotoxic (confluency <70% of control), agonist: Imiquimod (TLR7) […]
# [10] = cytotoxicity flag (confluency mask): cytotoxic (confluency <70% of control), agonist: MPLA (TLR4) […]
smiles,measurement,setting,value
CNC(=O)c1cc(Oc2ccc(NC(=O)Nc3ccc(Cl)c(C(F)(F)F)c3)cc2)ccn1,NF-kB SEAP reporter activity,[1]; [4],0.641
same,NF-kB SEAP reporter activity,[1]; [5],1.93
CNC(=O)c1cc(Oc2ccc(NC(=O)Nc3ccc(Cl)c(C(F)(F)F)c3)cc2)ccn1 (library stock concentration (final ~1000-fold dilution): 10 mM),NF-kB SEAP reporter activity,[2]; agonist: LPS (TLR4) 0.1 ug/mL,1.11
same,NF-kB SEAP reporter activity,[2]; [6],0.911
same,NF-kB SEAP reporter activity,[2]; [7],0.194
same,NF-kB SEAP reporter activity,[2]; [8],0.258
Cc1ccc(S(=O)(=O)Cc2nc(-c3ccc(C(=O)NCc4cccnc4)cc3)oc2C)cc1 (library stock concentration (final ~1000-fold dilution): 10 mM),NF-kB SEAP reporter activity,[2]; agonist: LPS (TLR4) 0.1 ug/mL,1.75
same,NF-kB SEAP reporter activity,[2]; [6],1.62
same,NF-kB SEAP reporter activity,[2]; [7],0.917
same,NF-kB SEAP reporter activity,[2]; [8],0.758
Cc1ccc(S(=O)(=O)Cc2nc(-c3ccc(C(=O)NCc4cccnc4)cc3)oc2C)cc1,NF-kB SEAP reporter activity,[1]; [4],1.16
same,NF-kB SEAP reporter activity,[1]; [5],0.965
CCn1cc(C(=O)O)c(=O)c2c(N)c(F)c(NC3CCCCC3)cc21,NF-kB SEAP reporter activity,[1]; [4],1.75
same,NF-kB SEAP reporter activity,[1]; [5],1.95
CCn1cc(C(=O)O)c(=O)c2c(N)c(F)c(NC3CCCCC3)cc21 (library stock concentration (final ~1000-fold dilution): 10 mM),NF-kB SEAP reporter activity,[2]; agonist: LPS (TLR4) 0.1 ug/mL,4.89
same,NF-kB SEAP reporter activity,[2]; [6],2.9
same,NF-kB SEAP reporter activity,[2]; [7],1.85
same,NF-kB SEAP reporter activity,[2]; [8],3.32
O=C1CC(c2ccc(O)cc2)Oc2cc(O)cc(O)c21 (stereo unspecified),NF-kB SEAP reporter activity,[1]; [4],1.22
same,NF-kB SEAP reporter activity,[1]; [5],1.15
O=C1CC(c2ccc(O)cc2)Oc2cc(O)cc(O)c21 (stereo unspecified) (library stock concentration (final ~1000-fold dilution): 10 mM),NF-kB SEAP reporter activity,[2]; agonist: LPS (TLR4) 0.1 ug/mL,1.63
same,NF-kB SEAP reporter activity,[2]; [6],1.21
same,NF-kB SEAP reporter activity,[2]; [7],0.926
same,NF-kB SEAP reporter activity,[2]; [8],1.32
COc1cc(-c2oc3cc(O)cc(O)c3c(=O)c2O)ccc1O (library stock concentration (final ~1000-fold dilution): 10 mM),NF-kB SEAP reporter activity,[2]; agonist: LPS (TLR4) 0.1 ug/mL,1.57 ± 0.059
same,NF-kB SEAP reporter activity,[2]; [6],0.925 ± 0.031
same,NF-kB SEAP reporter activity,[2]; [7],0.969 ± 0.0099
same,NF-kB SEAP reporter activity,[2]; [8],1.23 ± 0.064
COc1cc(-c2oc3cc(O)cc(O)c3c(=O)c2O)ccc1O,NF-kB SEAP reporter activity,[1]; [4],1.2 ± 0.064
same,NF-kB SEAP reporter activity,[1]; [5],1.738 ± 0.0039
CNCCCC12CCC(c3ccccc31)c1ccccc12.Cl,NF-kB SEAP reporter activity,[1]; [4],1.4
same,NF-kB SEAP reporter activity,[1]; [5],1.37
CNCCCC12CCC(c3ccccc31)c1ccccc12.Cl (library stock concentration (final ~1000-fold dilution): 10 mM),NF-kB SEAP reporter activity,[2]; agonist: LPS (TLR4) 0.1 ug/mL,1.55
same,NF-kB SEAP reporter activity,[2]; [6],0.443
same,NF-kB SEAP reporter activity,[2]; [7],0.537
same,NF-kB SEAP reporter activity,[2]; [8],0.603
CS(=O)(=O)O.CS(=O)(=O)O.N=C(N)Nc1ccc(C(=O)Oc2ccc3cc(C(=N)N)ccc3c2)cc1,NF-kB SEAP reporter activity,[1]; [4],1.01
same,NF-kB SEAP reporter activity,[1]; [5],1.02
CS(=O)(=O)O.CS(=O)(=O)O.N=C(N)Nc1ccc(C(=O)Oc2ccc3cc(C(=N)N)ccc3c2)cc1 (library stock concentration (final ~1000-fold dilution): 10 mM),NF-kB SEAP reporter activity,[2]; agonist: LPS (TLR4) 0.1 ug/mL,1.08
same,NF-kB SEAP reporter activity,[2]; [6],1.05
same,NF-kB SEAP reporter activity,[2]; [7],1.02
same,NF-kB SEAP reporter activity,[2]; [8],0.924
CN1CCC(=C2c3ccccc3C=Cc3ccccc32)CC1.Cl,NF-kB SEAP reporter activity,[1]; [4],1.53
same,NF-kB SEAP reporter activity,[1]; [5],1.1
CN1CCC(=C2c3ccccc3C=Cc3ccccc32)CC1.Cl (library stock concentration (final ~1000-fold dilution): 10 mM),NF-kB SEAP reporter activity,[2]; agonist: LPS (TLR4) 0.1 ug/mL,1.41
same,NF-kB SEAP reporter activity,[2]; [6],0.731
same,NF-kB SEAP reporter activity,[2]; [7],0.752
same,NF-kB SEAP reporter activity,[2]; [8],0.899
Cc1ncc(-c2ccnc(Nc3ccc(S(C)(=O)=O)cc3)n2)n1C(C)C (library stock concentration (final ~1000-fold dilution): 10 mM),NF-kB SEAP reporter activity,[2]; agonist: LPS (TLR4) 0.1 ug/mL,0.247
same,NF-kB SEAP reporter activity,[2]; [6],0.908
same,NF-kB SEAP reporter activity,[2]; [7],0.139
same,NF-kB SEAP reporter activity,[2]; [8],0.941
Cc1ncc(-c2ccnc(Nc3ccc(S(C)(=O)=O)cc3)n2)n1C(C)C,NF-kB SEAP reporter activity,[1]; [4],0.914
same,NF-kB SEAP reporter activity,[1]; [5],0.947
CCc1ccc(-c2nc(CSCC(=O)NCCc3ccccc3)c(C)o2)cc1,NF-kB SEAP reporter activity,[1]; [4],0.991
same,NF-kB SEAP reporter activity,[1]; [5],1.06
CCc1ccc(-c2nc(CSCC(=O)NCCc3ccccc3)c(C)o2)cc1 (library stock concentration (final ~1000-fold dilution): 10 mM),NF-kB SEAP reporter activity,[2]; agonist: LPS (TLR4) 0.1 ug/mL,1.09
same,NF-kB SEAP reporter activity,[2]; [6],0.643
same,NF-kB SEAP reporter activity,[2]; [7],0.64
same,NF-kB SEAP reporter activity,[2]; [8],0.791
CCCCCCCCCC(=O)OC1(c2ccc(Cl)cc2)CCN(CCCC(=O)c2ccc(F)cc2)CC1 (library stock concentration (final ~1000-fold dilution): 10 mM),NF-kB SEAP reporter activity,[2]; agonist: LPS (TLR4) 0.1 ug/mL,1.14
same,NF-kB SEAP reporter activity,[2]; [6],1.04
same,NF-kB SEAP reporter activity,[2]; [7],1.06
same,NF-kB SEAP reporter activity,[2]; [8],1.26
CCCCCCCCCC(=O)OC1(c2ccc(Cl)cc2)CCN(CCCC(=O)c2ccc(F)cc2)CC1,NF-kB SEAP reporter activity,[1]; [4],0.904
same,NF-kB SEAP reporter activity,[1]; [5],1.03
CC(O)Cn1cnc2c1c(=O)n(C)c(=O)n2C (stereo unspecified) (library stock concentration (final ~1000-fold dilution): 10 mM),NF-kB SEAP reporter activity,[2]; agonist: LPS (TLR4) 0.1 ug/mL,1.09
same,NF-kB SEAP reporter activity,[2]; [6],0.96
same,NF-kB SEAP reporter activity,[2]; [7],1.02
same,NF-kB SEAP reporter activity,[2]; [8],0.908
CC(O)Cn1cnc2c1c(=O)n(C)c(=O)n2C (stereo unspecified),NF-kB SEAP reporter activity,[1]; [5],0.976
COCCNCCc1cccc(Nc2ncc3c(n2)-c2ccccc2C(c2ccccc2F)C3)c1 (stereo unspecified),NF-kB SEAP reporter activity,[1]; [9],1.33
same,NF-kB SEAP reporter activity,[1]; [10],0.885
COCCNCCc1cccc(Nc2ncc3c(n2)-c2ccccc2C(c2ccccc2F)C3)c1 (stereo unspecified) (library stock concentration (final ~1000-fold dilution): 10 mM),NF-kB SEAP reporter activity,[3]; agonist: LPS (TLR4) 0.1 ug/mL,0.391
same,NF-kB SEAP reporter activity,[3]; [6],0.296
same,NF-kB SEAP reporter activity,[3]; [7],0.164
same,NF-kB SEAP reporter activity,[3]; [8],0.345
Cc1ccc2nc(CN(CCN(Cc3nc4ccc(C)cc4[nH]3)Cc3nc4ccc(C)cc4[nH]3)Cc3nc4ccc(C)cc4[nH]3)[nH]c2c1,NF-kB SEAP reporter activity,[1]; [9],0.0677
same,NF-kB SEAP reporter activity,[1]; [10],0.0634
Cc1ccc2nc(CN(CCN(Cc3nc4ccc(C)cc4[nH]3)Cc3nc4ccc(C)cc4[nH]3)Cc3nc4ccc(C)cc4[nH]3)[nH]c2c1 (library stock concentration (final ~1000-fold dilution): 10 mM),NF-kB SEAP reporter activity,[3]; agonist: LPS (TLR4) 0.1 ug/mL,0.204
same,NF-kB SEAP reporter activity,[3]; [6],0.073
same,NF-kB SEAP reporter activity,[3]; [7],0.0631
same,NF-kB SEAP reporter activity,[3]; [8],0.122
Cc1ccc(C(=O)Nc2ccc(Oc3cc4cnn(C)c4cc3-c3cn[nH]c3)c(F)c2)c(=O)n1-c1ccc(F)cc1,NF-kB SEAP reporter activity,[1]; [4],0.399
same,NF-kB SEAP reporter activity,[1]; [5],0.526
Cc1ccc(C(=O)Nc2ccc(Oc3cc4cnn(C)c4cc3-c3cn[nH]c3)c(F)c2)c(=O)n1-c1ccc(F)cc1 (library stock concentration (final ~1000-fold dilution): 10 mM),NF-kB SEAP reporter activity,[2]; agonist: LPS (TLR4) 0.1 ug/mL,0.964
same,NF-kB SEAP reporter activity,[2]; [6],0.353
same,NF-kB SEAP reporter activity,[2]; [7],0.264
same,NF-kB SEAP reporter activity,[2]; [8],0.207
N#CCNC(=O)c1ccc(-c2ccnc(Nc3ccc(N4CCOCC4)cc3)n2)cc1 (library stock concentration (final ~1000-fold dilution): 10 mM),NF-kB SEAP reporter activity,[2]; agonist: LPS (TLR4) 0.1 ug/mL,0.233
same,NF-kB SEAP reporter activity,[2]; [6],1.01
same,NF-kB SEAP reporter activity,[2]; [7],0.233
same,NF-kB SEAP reporter activity,[2]; [8],1.08
N#CCNC(=O)c1ccc(-c2ccnc(Nc3ccc(N4CCOCC4)cc3)n2)cc1,NF-kB SEAP reporter activity,[1]; [4],1.02
same,NF-kB SEAP reporter activity,[1]; [5],0.925
CNC(=O)c1cc(Oc2ccc3nc(NC4CCCCC4O)sc3c2)ccn1 (stereo unspecified),NF-kB SEAP reporter activity,[1]; [4],0.907
same,NF-kB SEAP reporter activity,[1]; [5],0.999
CNC(=O)c1cc(Oc2ccc3nc(NC4CCCCC4O)sc3c2)ccn1 (stereo unspecified) (library stock concentration (final ~1000-fold dilution): 10 mM),NF-kB SEAP reporter activity,[2]; agonist: LPS (TLR4) 0.1 ug/mL,1.19
same,NF-kB SEAP reporter activity,[2]; [6],1.01
same,NF-kB SEAP reporter activity,[2]; [7],1.06
same,NF-kB SEAP reporter activity,[2]; [8],0.927
